Test results as given in the supplement of paper PMC8728848.
This is one part of the list.

Key:
Test in all cases: glycan array binding signal (z-score within array); higher = stronger binding
Settings in all cases: glycan notation: IUPAC condensed, linker removed
[1] = biological target: Gal6S(b1-4)Glc6S
Outline: (§1)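 Negative Z-scores can be read as non-binding. The Z-score is calculated within each array and then averaged across arrays of one protein sequence at different concentrations or buffers and across linkers. Arrays, 3228 in all, were curated from the Consortium for Functional Glycomics database and kept only where the protein sequence was available.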

[2] = biological target: Gal6S(b1-4)GlcNAc
Outline: as §1

[3] = biological target: Gal6S(b1-4)GlcNAc6S
Outline: as §1

[4] = biological target: GalNAc(a1-3)Gal
Outline: as §1

[5] = biological target: GalNAc(a1-3)GalNAc
Outline: as §1

[6] = biological target: GalNAc(a1-3)GalNAc(b1-3)Gal(a1-4)Gal(b1-4)Glc
Outline: as §1

[7] = biological target: GalNAc(a1-3)GalNAc(b1-3)Gal(a1-4)Gal(b1-4)GlcNAc
Outline: as §1

[8] = biological target: GalNAc(b1-3)Gal
Outline: as §1

[9] = biological target: GalNAc(b1-3)Gal(a1-4)Gal(b1-4)GlcNAc
Outline: as §1

[10] = biological target: GalNAc(b1-3)Gal(a1-4)Gal(b1-4)GlcNAc(b1-3)Gal(b1-4)Glc
Outline: as §1

[11] = biological target: GalNAc(b1-3)Gal(a1-6)Gal(b1-4)Glc
Outline: as §1

[12] = biological target: GalNAc(b1-3)GalNAc
Outline: as §1

[13] = biological target: GalNAc(b1-4)Gal(b1-4)Glc
Outline: as §1

[14] = biological target: GalNAc(b1-4)GlcNAc
Outline: as §1

[15] = biological target: GalNAc(b1-4)GlcNAc(b1-2)Man(a1-3)[GalNAc(b1-4)GlcNAc(b1-2)Man(a1-6)]Man(b1-4)GlcNAc(b1-4)GlcNAc
Outline: as §1

[16] = biological target: GalNAc(b1-6)GalNAc
Outline: as §1

[17] = biological target: Glc(a1-4)Glc
Outline: as §1

[18] = biological target: Glc(a1-4)Glc(a1-4)Glc(a1-4)Glc
Outline: as §1

[19] = biological target: Glc(a1-6)Glc(a1-6)Glc
Outline: as §1

[20] = biological target: Glc(a1-6)Glc(a1-6)Glc(a1-6)Glc
Outline: as §1

[21] = biological target: Glc(b1-4)Glc
Outline: as §1

[22] = biological target: Glc(b1-6)Glc
Outline: as §1

[23] = biological target: GlcA(b1-3)Gal
Outline: as §1

[24] = biological target: GlcA(b1-3)GlcNAc
Outline: as §1

[25] = biological target: GlcA(b1-6)Gal
Outline: as §1

[26] = biological target: GlcNAc(a1-3)Gal(b1-4)GlcNAc
Outline: as §1

[27] = biological target: GlcNAc(a1-4)Gal(b1-3)GlcNAc
Outline: as §1

[28] = biological target: GlcNAc(a1-4)Gal(b1-4)GalNAc
Outline: as §1

[29] = biological target: GlcNAc(a1-4)Gal(b1-4)GlcNAc
Outline: as §1

[30] = biological target: GlcNAc(a1-4)Gal(b1-4)GlcNAc(b1-3)Gal(b1-4)Glc
Outline: as §1

[31] = biological target: GlcNAc(a1-4)Gal(b1-4)GlcNAc(b1-3)Gal(b1-4)GlcNAc
Outline: as §1

[32] = biological target: GlcNAc(a1-4)Gal(b1-4)GlcNAc(b1-3)Gal(b1-4)GlcNAc(b1-3)Gal(b1-4)GlcNAc
Outline: as §1

[33] = biological target: GlcNAc(a1-4)Gal(b1-4)GlcNAc(b1-3)Gal(b1-4)[Fuc(a1-3)]GlcNAc(b1-3)Gal(b1-4)[Fuc(a1-3)]GlcNAc
Outline: as §1

[34] = biological target: GlcNAc(a1-6)Gal(b1-4)GlcNAc
Outline: as §1

[35] = biological target: GlcNAc(b1-2)Gal(b1-3)GalNAc
Outline: as §1

[36] = biological target: GlcNAc(b1-2)Man(a1-3)[GlcNAc(b1-2)Man(a1-6)]Man(b1-4)GlcNAc(b1-4)GlcNAc
Outline: as §1

[37] = biological target: GlcNAc(b1-2)Man(a1-3)[GlcNAc(b1-2)Man(a1-6)]Man(b1-4)GlcNAc(b1-4)[Fuc(a1-6)]GlcNAc
Outline: as §1

[38] = biological target: GlcNAc(b1-2)Man(a1-3)[GlcNAc(b1-4)][GlcNAc(b1-2)Man(a1-6)]Man(b1-4)GlcNAc(b1-4)GlcNAc
Outline: as §1

[39] = biological target: GlcNAc(b1-2)[GlcNAc(b1-4)]Man(a1-3)[GlcNAc(b1-2)Man(a1-6)]Man(b1-4)GlcNAc(b1-4)GlcNAc
Outline: as §1

[40] = biological target: GlcNAc(b1-2)[GlcNAc(b1-4)]Man(a1-3)[GlcNAc(b1-4)][GlcNAc(b1-2)Man(a1-6)]Man(b1-4)GlcNAc(b1-4)GlcNAc
Outline: as §1

[41] = biological target: GlcNAc(b1-2)[GlcNAc(b1-4)]Man(a1-3)[GlcNAc(b1-4)][GlcNAc(b1-2)[GlcNAc(b1-6)]Man(a1-6)]Man(b1-4)GlcNAc(b1-4)GlcNAc
Outline: as §1

[42] = biological target: GlcNAc(b1-2)[GlcNAc(b1-6)]Man(a1-6)[GlcNAc(b1-2)Man(a1-3)]Man(b1-4)GlcNAc(b1-4)GlcNAc
Outline: as §1

[43] = biological target: GlcNAc(b1-2)[GlcNAc(b1-6)]Man(a1-6)[GlcNAc(b1-2)Man(a1-3)][GlcNAc(b1-4)]Man(b1-4)GlcNAc(b1-4)GlcNAc
Outline: as §1

[44] = biological target: GlcNAc(b1-3)Gal
Outline: as §1

[45] = biological target: GlcNAc(b1-3)Gal(b1-3)GalNAc
Outline: as §1

B1: XCL (Xerocomus chrysenteron) (protein)
chain: MSYSITLRVYQTNRDRGYFSIVEKTVWHFANGGTWSEANGAHTLTQGGSGTSGVLRFLSTKGERITVAVGVHNYKRWCDVVTGLKPDETALVINPQYYNNGGRDYVREKQLAEYSVTSAIGTKVEVVYTVAEGNNLEANVIFS
glycan array binding signal (z-score) [1]: -0.302
glycan array binding signal (z-score) [2]: -0.253
glycan array binding signal (z-score) [3]: -0.32
glycan array binding signal (z-score) [4]: -0.3
glycan array binding signal (z-score) [5]: -0.303
glycan array binding signal (z-score) [6]: -0.062
glycan array binding signal (z-score) [7]: -0.069
glycan array binding signal (z-score) [8]: -0.313
glycan array binding signal (z-score) [9]: -0.32
glycan array binding signal (z-score) [10]: -0.322
glycan array binding signal (z-score) [11]: -0.323
glycan array binding signal (z-score) [12]: 0.592
glycan array binding signal (z-score) [13]: -0.311
glycan array binding signal (z-score) [14]: -0.285
glycan array binding signal (z-score) [15]: -0.323
glycan array binding signal (z-score) [16]: -0.321
glycan array binding signal (z-score) [17]: -0.324
glycan array binding signal (z-score) [18]: -0.321
glycan array binding signal (z-score) [19]: -0.318
glycan array binding signal (z-score) [20]: -0.318
glycan array binding signal (z-score) [21]: -0.304
glycan array binding signal (z-score) [22]: -0.298
glycan array binding signal (z-score) [23]: -0.318
glycan array binding signal (z-score) [24]: -0.317
glycan array binding signal (z-score) [25]: -0.309
glycan array binding signal (z-score) [26]: 1.7
glycan array binding signal (z-score) [27]: 1.03
glycan array binding signal (z-score) [28]: 0.367
glycan array binding signal (z-score) [29]: 2.15
glycan array binding signal (z-score) [30]: 1.76
glycan array binding signal (z-score) [31]: 1.75
glycan array binding signal (z-score) [32]: 5.84
glycan array binding signal (z-score) [33]: 0.858
glycan array binding signal (z-score) [34]: 0.302
glycan array binding signal (z-score) [35]: -0.139
glycan array binding signal (z-score) [36]: 4.71
glycan array binding signal (z-score) [37]: 1.03
glycan array binding signal (z-score) [38]: 5.38
glycan array binding signal (z-score) [39]: 2.79
glycan array binding signal (z-score) [40]: 4.92
glycan array binding signal (z-score) [41]: 1.33
glycan array binding signal (z-score) [42]: 1.42
glycan array binding signal (z-score) [43]: 3.42
glycan array binding signal (z-score) [44]: 0.225
glycan array binding signal (z-score) [45]: 3.71
